# Reference: PubChem BioAssay AID504832 (National Center for Advancing Translational Sciences (NCATS), 2011)
# The whole screen tested about 310,000 compounds, of which about 18,000 (5.8%) were called active. Inconclusive means that the source gave no clear call. Such entries were picked first, then a sample of the others. Calls follow the shape of the dose curve; as a rule, active = well fitted inhibition curve with a large enough effect; inconclusive = small, poorly fitted or top-dose-only effect, or another doubt; inactive = no such curve, though single readings can be large or run the other way. No potency is given beside an inconclusive call; the fits are too rough.
# Test: Primary qHTS for delayed death inhibitors of the malarial parasite plastid, 48 hour incubation
# Conditions: P. falciparum luciferase growth in erythrocytes; series mostly up to 28.7 µM
# Summary of the method: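 Parasite viability was followed by luminescence of a genomically integrated firefly luciferase. Cultures held 0.1% parasitemia at 2% hematocrit (final), incubated under 5% CO2 at 37 C.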
# Potency is read from the fitted curve at half-maximal effect; tags tell the direction and shape of the fitted curve.
row,SMILES,Potency
1,CC(C)c1ccc(S(=O)(=O)N2CCN(C(=O)Cc3ccsc3)CC2)cc1,"inconclusive [inhibitor, partial curve, poor fit]"
2,Cc1noc(C)c1C(=O)OCC(=O)Nc1ccccc1C(=O)NC(C)c1ccccc1 (stereo not given),"inconclusive [inhibitor, single point]"
3,O=C1CC(SC2=NCCS2)C(=O)N1c1ccc(Br)cc1 (stereo not given),inactive
4,CC(=O)NC(=S)NNC(=O)COc1ccc(Br)cc1,inactive
5,O=C(c1ccc(F)cc1)N1CCN(c2cc(=O)[nH]nc2-c2ccccc2)CC1,"inconclusive [inhibitor, partial curve, poor fit]"
6,CC1CCCC(C)N1C(=O)/C=C/c1ccc(S(=O)(=O)N2CCOCC2)cc1 (stereo not given),"inconclusive [inhibitor, partial curve]"
7,COCCN1CCCC(CNCc2cn(C)nc2-c2ccc(Oc3ccccc3)cc2)C1 (stereo not given),active: 6.57 µM
8,COc1cccc(Cn2cnc3c(NS(=O)(=O)c4cc(Cl)ccc4Cl)c(C)c(C)cc32)c1,"inconclusive [inhibitor, partial curve]"
9,CCCCOC(=O)c1sc2nc(N3CCOCC3)c3c(c2c1N)CC(C)(C)OC3,inactive
10,CC(C)c1ccc(NC(=O)CCNC(=O)N2CC(=O)Nc3ccccc32)cc1,"inconclusive [inhibitor, single point]"
11,CC(C)CC(=O)Nc1cccc(-c2nc3ccccc3[nH]2)c1,inactive
12,C/C(=N\Nc1ccc([N+](=O)[O-])cc1[N+](=O)[O-])c1ccc(-n2nncc2C(C)(C)C)cc1,"inconclusive [inhibitor, single point]"
13,Cc1cc(C(=O)N/N=C/c2ccc(OC(=O)c3ccccc3Br)cc2)n[nH]1,inactive
14,CCCn1c(NC(=O)CCS(=O)(=O)c2ccc(C)cc2)nc2ccccc21,"inconclusive [inhibitor, single point]"
15,O=C(c1cccc(S(=O)(=O)N2CCc3ccccc32)c1)N1CCN(c2ccccc2)CC1,"inconclusive [inhibitor, single point]"
16,Cc1[nH]nc2c1C(c1ccc(OC(=O)c3ccco3)cc1)C(C#N)=C(N)O2 (stereo not given),inactive
17,CCOC(=O)CN(C(=O)CSc1nnc(-c2ccc(OC)c(OC)c2)o1)c1ccccc1,"inconclusive [inhibitor, partial curve]"
18,COCC(=O)Nc1cc(Cl)c(OC)cc1OC,inactive
19,O=C(NC(=S)Nc1cccnc1)c1cccs1,inactive
20,CCCCSc1cnn(-c2ccccc2)c(=O)c1SCCCC,active: 11.7 µM
21,CCCc1ccc(S(=O)(=O)N/N=C(/C)c2ccc3c(c2)OCO3)cc1,inactive
22,O=C(c1cc(-c2ccccc2)nn1-c1ccccc1)N1CCN(S(=O)(=O)c2c(F)cccc2F)CC1,"inconclusive [inhibitor, partial curve]"
23,CCC1CCCCN1C(=O)CSc1nc2c(c(=O)n1C)SC(C)C2 (stereo not given),"inconclusive [inhibitor, partial curve]"

row,SMILES,Potency
1,Cc1cc(Nc2ccccc2)nc(NCc2ccccc2)n1,active: 0.586 µM
2,O=C(NOCc1ccccc1)c1ccc([N+](=O)[O-])cc1,inactive
3,O=C(N/N=C/c1ccccn1)c1ccc(N/N=C/c2ccccn2)cc1,"inconclusive [inhibitor, partial curve, poor fit]"
4,Cc1ccc(-c2cc(-c3ccc(F)cc3)nc(N)c2C#N)o1,inactive
5,COCCCNC(=O)/C(C#N)=C/c1c(N2CCN(c3ccccc3)CC2)nc2ccccn2c1=O,"inconclusive [inhibitor, single point]"
6,O=C(c1cc2cc(Cl)ccc2[nH]1)N1CCN(C(=O)c2ccco2)CC1,"inconclusive [inhibitor, partial curve]"
7,Cc1nnnn1/C(=C\c1ccccc1)C(=O)OCC(=O)Nc1ccc(Cl)cc1F,"inconclusive [inhibitor, single point]"
8,COC(=O)C1=CN(CC2CCCO2)C=C(C(=O)OC)C1c1cc(OC)c(OC)c(OC)c1 (stereo not given),"inconclusive [inhibitor, partial curve, poor fit]"
9,CCOC(CNC(=O)c1cccn2c(=O)c3c(C)c(C)sc3nc12)OCC,active: 6.57 µM
10,CCOC(=O)C1CCCN(C(=O)c2cn(CC)c3ccc(S(=O)(=O)N4CCCC4)cc3c2=O)C1 (stereo not given),active: 11.7 µM
11,O=C(Nc1cc(C(=O)N2CCN(c3ccccc3O)CC2)ccc1Cl)c1cccs1,"inconclusive [inhibitor, partial curve]"
12,Cc1ccc(S(=O)(=O)CCSc2nc(C)cc(C(F)(F)F)c2C#N)cc1,"inconclusive [inhibitor, single point]"
13,COc1ccccc1NC(=O)CN1CCN(C2c3ccccc3-c3ccccc32)CC1,active: 13.1 µM
14,CCC(C)[C@H](NC(=O)N1CCN(C)CC1)C(=O)OC (stereo not given in full),inactive
15,CCOC(=O)[C@@H]1[C@H]2COc3ccc(Br)cc3[C@@H]2N2C(=O)N(c3ccc(C(F)(F)F)cc3)C(=O)[C@@]12C,"inconclusive [inhibitor, partial curve, poor fit]"
16,CCC(=O)c1ccc(OCC(=O)Nc2ccccc2N2CCCCC2)cc1,"inconclusive [inhibitor, single point]"
17,COc1ccc(NC(=O)COC(=O)CCCc2c[nH]c3ccccc23)cc1OC,inactive
18,CC(=O)c1ccc(N2CCN(C(=O)c3ccc(NC4=NC5CS(=O)(=O)CC5S4)cc3)CC2)cc1 (stereo not given),inactive
19,O=C(N[C@@H](Cc1ccccc1)C(=O)CCl)OCc1ccccc1,inactive
20,CC(=O)/C=C\c1cn(-c2ncc(C(F)(F)F)cc2Cl)c2ccccc12,"inconclusive [inhibitor, single point]"
21,N/C(=N\OC(=O)C1CC1)c1ccc([N+](=O)[O-])s1,"inconclusive [inhibitor, single point]"
22,CC(=O)Nc1ccc(NC(=O)CSc2ccc(-c3ccco3)nn2)cc1,inactive
